Our source for the binding signal (log2 normalized fluorescence) values is paper PMC5515408.

The list shows a part of the results. At the low end of the ranking the order means little.

The subject of this test is MYC (p64) + MAX (p21), in MYC:MAX. As to the kind of experiment: protein-binding microarray (anti-MAX antibody). To be noted: PBM: 15 mM Tris-HCl pH 7.5, 100 mM KCl, 0.075% NP40, 7.5 mM beta-mercaptoethanol, 375 ng/ul BSA, 8 ng/ul poly(dA-dT):(dA-dT), 550 ng complex, 60 min, room …; high values mean tight binding; double strand, one strand shown; sequences stand for … in CCGGC…TTAATAGCTAAGATTACTATATCGACG
As to TGACAAGTGGAG, the binding signal (log2 normalized fluorescence) turned out to be 0.167.
As to TGAGAGACAGTA, the binding signal (log2 normalized fluorescence) stood at 0.00807.
Take TGACTGTTGGTA: the binding signal (log2 normalized fluorescence) is -0.0898.
Turning to TGACTAGCCGTA, the binding signal (log2 normalized fluorescence) is -0.128.
On to TGATTCCTAGTA, for which the binding signal (log2 normalized fluorescence) is -0.0645.
On to TGAGCGAATGTA, for which the binding signal (log2 normalized fluorescence) was 0.092.
Under TGAGGAGTAGTA stands -0.213; under TGAGACTTGCTA, 0.0728.
As to TGATCGACAGTA, the binding signal (log2 normalized fluorescence) was 0.0775.
In the case of TGAGCATAGGTA, the binding signal (log2 normalized fluorescence) is -0.0632.
Turning to TGATCAGGCGTA, the binding signal (log2 normalized fluorescence) turned out to be 0.0233.
As for TGACACGCGGTA, the binding signal (log2 normalized fluorescence) is 0.487.
As for TGATACGTGGTA, the binding signal (log2 normalized fluorescence) turned out to be 0.341.
Under TGACTCGTGTTA stands 0.481; under TGATACATCGTA, 0.0178.
The same measure for TGAGCTCTCGTA: -0.0629; for TGATGAGGAGTA: -0.0631; for TGAGTTAAGGTA: 0.0434.
Under TGAGCTACTGTA stands -0.0859.
Take TGAACCTCTGTA: the binding signal (log2 normalized fluorescence) came out at 0.177.
The same measure for TGAGATGGAGTA: -0.137.
Under TGAAAGAAAGTA stands 0.0142; under TGATAGCGTGTA, 0.398.
The same measure for TGAGCTAGTGTA: -0.0796.
Regarding TGACCCGAGGTA, the binding signal (log2 normalized fluorescence) turned out to be 0.226.
Under TGATGTCCGGTA stands 0.165; under TGATGCGCAGTA, 0.0262; under TGAAGATGGGTA, 0.0158.
With TGAGCTTAGGTA, the binding signal (log2 normalized fluorescence) was -0.222.
The same measure for TGATCCCGCGTA: 0.218; for TGAGCCCCCGTA: -0.0648.
For the sequence TGAGGTGTTGTA, the binding signal (log2 normalized fluorescence) was -0.106.
The same measure for TGATTCGTAGTA: -0.167; for TGAAACTATGTA: 0.0039; for TGAGTGTAGGTA: -0.0466.
Under TGAGTCCCGGTA stands -0.0764.
TGATTCACAGTA: the binding signal (log2 normalized fluorescence) came out at 0.0373.
Under TGATTCTTAGTA stands -0.0367; under TGACGCGGGGTA, 0.442; under TGAGCGCGTGTA, 0.355.
The same measure for TGATACGTGGTG: 0.387; for TGAGCTACAGTA: -0.0596; for GGACCCGTGGTA: 0.439.
Under TGAGGCTAAGTA stands -0.107; under TGATGTTAAGTA, -0.00788.
Regarding TGAGCCACTGTA, the binding signal (log2 normalized fluorescence) amounted to 0.0362.
As for TGATCAGCAGTA, the binding signal (log2 normalized fluorescence) was -0.0801.
Under TGAAATTTCGTA stands -0.0261; under TGACTCACCGTA, 0.291.
Under TGAGGACTAGTA stands -0.08.
Regarding TGTCACGTGATA, the binding signal (log2 normalized fluorescence) is 0.587.
Under TGACTGATTGTA stands 0.0339; under TGAACAAATGTA, 0.269; under TGACTAAACGTA, 0.0986.
Under TGAGGTGGAGTA stands 0.108; under TGAGCCGGTGTA, -0.0404; under TGATAGCGCGTA, 0.187.
Under TGACAAGCAGTA stands 0.112; under TGAGTCATTGTA, 0.0871.
TGAGCAGAAGTA: the binding signal (log2 normalized fluorescence) worked out at 0.0465.
As to TGATGAATAGTA, the binding signal (log2 normalized fluorescence) was -0.0731.
As to TGATAGAGCGTA, the binding signal (log2 normalized fluorescence) was -0.0413.
On to TGAGCCAAAGTA, for which the binding signal (log2 normalized fluorescence) was -0.0525.
In the case of TGAAGGACTGTA, the binding signal (log2 normalized fluorescence) is 0.0114.
Regarding TGAGCGCCAGTA, the binding signal (log2 normalized fluorescence) was found to be 0.166.
In the case of TGACAGGGGGTA, the binding signal (log2 normalized fluorescence) was 0.571.
Regarding TGAACATGTGTA, the binding signal (log2 normalized fluorescence) amounted to 0.64.
Under TGAAAGCAAGTA stands 0.19; under TGAAAGGGTGTA, 0.202.
Take TGAATCCGTGTA: the binding signal (log2 normalized fluorescence) stood at 0.0875.
Under TGAACAATCGTA stands 0.0239; under TGAACCGCAGTA, 0.107.
The same measure for TGGCACGAGGTA: 0.538; for GGACAGGTGGGA: 0.375; for TGACAGGTAGTA: 0.0737.
For TGATGGTTGGTA, the binding signal (log2 normalized fluorescence) was -0.00829.
Take TGAGTCCCCGTA: the binding signal (log2 normalized fluorescence) is 0.119.
Under TGAGTGATAGTA stands -0.0647; under TGACGAGCTGTA, 0.0143; under TGATATTCTGTA, -0.104.
The same measure for TGAGAAAGTGTA: 0.13.
Under TGAATAGACGTA stands 0.0122; under TGACACTTGGTT, 0.146; under TGAACTCGGGTA, -0.0107.
Regarding TGAACTACCGTA, the binding signal (log2 normalized fluorescence) came to 0.12.
The same measure for TGAGGCGCGGTA: 0.347; for TGAGGGTAGGTA: 0.0237; for TGAACCAAGGTA: 0.057.
For the sequence TGAATCGCTGTA, the binding signal (log2 normalized fluorescence) was determined as 0.0414.
Under TGATGCTAGGTA stands 0.102; under TGAGTTAGGGTA, -0.0548.
TGACAGCGTGTA: the binding signal (log2 normalized fluorescence) was determined as 0.424.
Under TGACTAAAGGTA stands 0.0653.
Under TGAATTGAAGTA stands -0.158.
The same measure for TGATTACTCGTA: -0.0203; for TGAGTATCCGTA: -0.118.
With TGAACACCGGTA, the binding signal (log2 normalized fluorescence) amounted to 0.0511.
Consider TGACCTAATGTA, for which the binding signal (log2 normalized fluorescence) is 0.247.
Consider TGAGTTGACGTA, for which the binding signal (log2 normalized fluorescence) was -0.105.
The same measure for TGATATTAGGTA: -0.11; for TGAGCAAAAGTA: -0.0343.
Regarding TGAGACTAGGTA, the binding signal (log2 normalized fluorescence) came to 0.024.
Under TGAAAGGAGGTA stands 0.164; under TGAATCCCAGTA, -0.105; under TGATTGTGTGTA, 0.123.
In the case of TGAGCCTACGTA, the binding signal (log2 normalized fluorescence) is -0.0295.
Under TGACTCATGGTA stands 0.443; under TGACCGTCGGTA, 0.0131; under TGAAACGTGCTA, 0.74.
For TGAGGGTATGTA, the binding signal (log2 normalized fluorescence) turned out to be 0.134.
Consider AGTCACGTGGTA, for which the binding signal (log2 normalized fluorescence) was determined as 0.893.
The same measure for TGAGATTATGTA: -0.0381; for TGACAAATTGTA: 0.0668; for TGAGCTCAAGTA: -0.0441.
The same measure for TGAGTTCCAGTA: -0.207; for TGACATGTGGTA: 0.77; for TGAATGTACGTA: 0.276.
Regarding TGATTAGCCGTA, the binding signal (log2 normalized fluorescence) is -0.18.
The same measure for TGACTCAGTGTA: 0.119; for AAACACGTAGTA: 0.488; for GTACCCGTGGTA: 0.435.
The same measure for TGACAAGTGGTC: 0.241; for TGATTACCGGTA: -0.0901.
The same measure for ATTTACAGGCTA: 0.18; for TGAACGTGCGTA: 0.437; for TGAAATGTCGTA: 0.012.
In the case of TGATTCGGCGTA, the binding signal (log2 normalized fluorescence) is -0.136.
Take TGAACTTTCGTA: the binding signal (log2 normalized fluorescence) is -0.0208.
Regarding TGAGAATCCGTA, the binding signal (log2 normalized fluorescence) was -0.0611.
Under TCTCTGAATGAT stands 0.00916; under TGATCCTAGGTA, -0.0694.
Regarding TGATCATAAGTA, the binding signal (log2 normalized fluorescence) is 0.109.
For TGCTCCGTGGTA, the binding signal (log2 normalized fluorescence) came to 0.147.
The same measure for TGACGTAGGGTA: -0.0315.
Turning to TGAGTGTCGGTA, the binding signal (log2 normalized fluorescence) was 0.198.
The same measure for TGATATCTCGTA: -0.00572; for TGAACCTTAGTA: 0.102; for TGACTATGCGTA: 0.11.
